These results are taken from the supplement of paper PMC10600219.

Structures can show the parent of a compound that is named as a salt. Over roughly 2,800 compounds, “cell viability relative to vehicle” has its median near 0.98; the lowest 2% begin near 0.45. This is one part of the list.

The test system of the assay is NCI-H2228 alectinib-DTP. Put plainly: cell viability relative to vehicle (fraction of vehicle); NCI-H2228 is an ALK-positive lung cancer line and DTP means drug-tolerant persister; higher = less growth inhibition. To be noted: 100 nM; treatment time 6 days. In short, it runs like this:
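The 3114-agent TargetMol anti-cancer compound library was tested at 100 nM for 6 days on parental NCI-H2228 cells and on persister cells derived with 1000 nM of a targeted drug for 13 days. ATP readout by the CellTiter-Glo 3D Cell Viability Assay gave cell viability relative to DMSO vehicle-treated cells.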
`Cc1nc2n(c(=O)c1CCN1CCC(c3noc4cc(F)ccc34)CC1)CCCC2O` (stereo unspecified) [Paliperidone] displayed a cell viability of 0.929.
`C[C@H](CCC(=O)NCCS(=O)(=O)O)[C@H]1CC[C@H]2[C@@H]3[C@@H](O)C[C@@H]4C[C@H](O)CC[C@]4(C)[C@H]3CC[C@]12C` [Tauroursodeoxycholic Acid] came in with a cell viability of 0.992.
With `c1cn2cc(-c3ccc4cn[nH]c4c3)nc(Nc3ccc(N4CCOCC4)cc3)c2n1` [Entospletinib] the figure was 0.952; with `O=C1CCC(N2C(=O)c3ccccc3C2=O)C(=O)N1` (stereo unspecified) [Thalidomide], 1.03; with `COc1c2ccoc2cc2oc(=O)ccc12` [Bergapten], 1.13.
The molecule `CCC(Sc1nnc2c(n1)[nH]c1ccccc12)C(=O)N1c2ccccc2Sc2ccccc21` (stereo unspecified) [Inauhzin] showed a cell viability of 1.06.
`CCCCCCCCCCCC1=C(O)C(=O)C=C(O)C1=O` [Embelin] registered a cell viability of 1.02.
Molecule `CCOCc1nc2c(N)nc3ccccc3c2n1CC(C)(C)O` [Resiquimod] returned a cell viability of 1.15.
`NC(=O)NC1NC(=O)NC1=O` (stereo unspecified) [Allantoin] showed a cell viability of 0.891.
For `O=C(O)CNC(=O)c1nc(Cl)c2ccccc2c1O`, the cell viability was 1.1.
With `O=C1CCc2ccc(OCCCCN3CCN(c4cccc(Cl)c4Cl)CC3)cc2N1` [Aripiprazole] the figure was 0.934; with `CN(C)CCOC(c1ccc(Cl)cc1)c1ccccn1` (stereo unspecified) [Carbinoxamine Maleate Salt], 0.925.
As for `Cc1ccccc1C(OCCN(C)C)c1ccccc1` (stereo unspecified) [Orphenadrine hydrochloride], the figure is 1.01.
Turning to `Cc1ccc(/C=C2\CNC/C(=C\c3ccc(C)cc3)C2=O)cc1`, the cell viability was 0.951.
On to `O=C1C(O)=C([C@H]2CC[C@H](c3ccc(Cl)cc3)CC2)C(=O)c2ccccc21` [Atovaquone], for which the cell viability came to 0.892.
With `Cc1nn(C)c2c1C(c1ccc(C(F)(F)F)cc1)C(C#N)=C(N)O2` (stereo unspecified) the figure was 0.836.
With `CNCc1cc(-c2ccccc2F)n(S(=O)(=O)c2cccnc2)c1` [Vonoprazan fumarate] the figure was 1.01; with `Cc1cc(Nc2cc(N3CCN(C)CC3)nc(/C=C/c3ccccc3)n2)n[nH]1`, 0.731; with `COCCOc1ccc2c(c1)ncn2-c1ccc2cccc(N3CCC(N)CC3)c2n1`, 1.18.
As for `CCCC(=O)[O-].[Na+]` [Sodium butanoate], the figure is 1.02; as for `COc1ccc(C2CC(c3ccccc3)=NN2c2ccc(S(N)(=O)=O)cc2)cc1` (stereo unspecified), 0.916; as for `Cc1cc(-c2ccc(CC(=O)Nc3ccc(-c4cccnc4)cc3)cc2)ccn1`, 0.911.
`COC(=O)C1=C(C)NC(C)=C(C(=O)OCCN(C)Cc2ccccc2)C1c1cccc([N+](=O)[O-])c1` (stereo unspecified) [Nicardipine hydrochloride] came in with a cell viability of 0.983.
As for `CC1(C)CNc2cc(NC(=O)c3cccnc3NCc3ccncc3)ccc21` [Motesanib], the figure is 0.93; as for `COc1ccc(N2C(=O)/C(=C\c3ccc([N+](=O)[O-])s3)SC2=S)cc1`, 0.888.
With `COc1ccc2cc(OCC3(C(=O)O)CN(C(=O)c4ccc(F)cc4)C3)ccc2c1`, the cell viability came out at 0.926.
Consider `Oc1cc(O)c(Cl)cn1` [Gimeracil], for which the cell viability is 1.1.
As for `CC(C)c1ccc(NC(=O)c2cccs2)c(-c2nc3ccccc3[nH]c2=O)c1`, the figure is 1.07; as for `CC(O)(P(=O)(O)O)P(=O)(O)O` [Etidronate], 1.11; as for `CC(O)(P(=O)(O)O)P(=O)(O)O` [Sodium etidronate], 1.06.
As for `O=C1[C@H](CC[C@H](O)c2ccc(F)cc2)[C@@H](c2ccc(O)cc2)N1c1ccc(F)cc1` [Ezetimibe], the figure is 0.779; as for `c1cc(-c2cnn3cc(-c4ccc(OCCN5CCCCC5)cc4)cnc23)ccn1` [Dorsomorphin], 0.979.
For the molecule `c1cc(-c2cnn3cc(-c4ccc(OCCN5CCCCC5)cc4)cnc23)ccn1` [Dorsomorphin dihydrochloride], the cell viability is 1.12.
For `CC1=C(/C=C/C(C)=C/C=C/C(C)=C/C(=O)Nc2ccc(O)cc2)C(C)(C)CCC1=O` [4-Oxofenretinide], the cell viability was determined as 1.06.
With `CCCNc1nc(NCCC)nc(N(C)OC)n1` the figure was 0.945.
`FC(F)(F)c1ccc(CNc2ccc(Cc3c[nH]c4ncc(Cl)cc34)cn2)cc1`: the cell viability is 1.03.
With `COC(=O)/C=C/c1ccc(O)c(OC)c1` the figure was 1.17.
Consider `Cc1cnc(C(=O)NCCc2ccc(S(=O)(=O)NC(=O)NC3CCCCC3)cc2)cn1` [Glipizide], for which the cell viability was found to be 0.742.
With `Cc1cc(-c2ncc(CC(=O)Nc3ccc(-c4cnccn4)cn3)cc2C)ccn1` the figure was 0.892.
As for `O=C(O)COCCN1CCN([C@H](c2ccccc2)c2ccc(Cl)cc2)CC1` [Levocetirizine], the cell viability was determined as 0.917.
Regarding `COc1ncc(-c2ccc3nccc(-c4ccnnc4)c3c2)cc1NS(=O)(=O)c1ccc(F)cc1F` [Omipalisib], the cell viability stood at 0.261.
`CN1CCC(=C2c3ccccc3CCc3sccc32)CC1` [Pizotifen] displayed a cell viability of 1.04.
With `CN1CCC(=C2c3ccccc3CCc3sccc32)CC1` [Pizotifen Malate] the figure was 1.05; with `COc1cc2ncnc(Oc3ccc(CC(=O)Nc4cnn(C(C)C)c4)cc3)c2cc1OC`, 1.13.
In the case of `CCCCCOC(=O)Nc1nc(=O)n([C@@H]2O[C@H](C)[C@@H](O)[C@H]2O)cc1F` [Capecitabine], the cell viability was 0.98.
With `CC(C)=CCC/C(C)=C/CC/C(C)=C/CSc1ccccc1C(=O)O` [Salirasib] the figure was 1.01; with `C[C@]1(COc2ccc(N3CCC(Oc4ccc(OC(F)(F)F)cc4)CC3)cc2)Cn2cc([N+](=O)[O-])nc2O1` [Delamanid], 0.956.
The molecule `CCN(CC)CCOc1ccc(C(=C(Cl)c2ccccc2)c2ccccc2)cc1` [Clomifene citrate] showed a cell viability of 1.01.
The molecule `COc1ccc(CC(=O)NC(/N=C(\NC#N)Nc2cccc3ncccc23)C(C)(C)C)cc1OC` (stereo unspecified) registered a cell viability of 0.985.
Molecule `O=C(O)C1(C(=O)O)CCC1.[NH2-].[NH2-].[Pt+2]` [Carboplatin] gave a cell viability of 1.13.
Take `O=C(c1cncc(Br)c1)N1CCC(N2CCCC2)CC1`: the cell viability was 0.968.
As for `O=C(Nc1ccc([N+](=O)[O-])cc1O)Nc1ccccc1Br`, the figure is 1.05; as for `COc1ccc(C2=N[C@H](c3ccc(Cl)cc3)[C@H](c3ccc(Cl)cc3)N2C(=O)N2CCNC(=O)C2)c(OC(C)C)c1` [Nutlin-3b], 1.06.
In turn, `CN(C)CCCOc1ccc(-c2ccc3ncc4c(c3c2)n(C2CCOCC2)c(=O)n4C)cn1` yielded a cell viability of 0.878.
Molecule `O=c1c(O)c(-c2ccc(O)c(O)c2)oc2cc(O)cc(O)c12` [Quercetin] gave a cell viability of 1.01.
`O=C(O)c1cc(I)ccc1NC(=O)[C@H](Cc1ccccc1)NCc1ccccc1` registered a cell viability of 1.14.
With `O=C(OCCOCCO)c1ccccc1Nc1cccc(C(F)(F)F)c1` [Etofenamate] the figure was 1.1; with `COCCc1ccc(OCC(O)CNC(C)C)cc1` (stereo unspecified) [Metoprolol tartrate], 1.07; with `COCCc1ccc(OCC(O)CNC(C)C)cc1` (stereo unspecified) [Metoprolol Succinate], 0.902.
As for `CCN1CCN(Cc2ccc(Nc3ncc(F)c(-c4cc(F)c5nc(C)n(C(C)C)c5c4)n3)nc2)CC1` [Abemaciclib], the figure is 0.92; as for `CCN1CCN(Cc2ccc(Nc3ncc(F)c(-c4cc(F)c5nc(C)n(C(C)C)c5c4)n3)nc2)CC1`, 0.839.
`Nc1nc2[nH]cc(CCc3ccc(C(=O)N[C@@H](CCC(=O)O)C(=O)O)cc3)c2c(=O)[nH]1` [Pemetrexed Disodium Hydrate] had a cell viability of 0.672.
As for `CC(C)Cc1ccc(C(C)C(=O)O)cc1` (stereo unspecified) [Ibuprofen], the figure is 0.909.
Regarding `OCc1ccccn1` [2-(Hydroxymethyl)pyridine], the cell viability came out at 1.12.
As for `CN(C(=O)c1c(O)c2ccccc2n(C)c1=O)c1ccccc1` [Roquinimex], the cell viability is 1.11.
Take `COC(=O)[C@]12CCC(C)(C)C[C@H]1[C@H]1C(=O)C=C3[C@@]4(C)C=C(C#N)C(=O)C(C)(C)[C@@H]4CC[C@@]3(C)[C@]1(C)CC2` [Bardoxolone Methyl]: the cell viability came to 0.967.
As for `COc1cc2ncnc(Nc3ccc(F)c(Cl)c3)c2cc1OCCCN1CCOCC1` [Gefitinib], the figure is 0.881.
As for `CN1CCN(c2nc(C3=C(c4c[nH]c5ccccc45)C(=O)NC3=O)c3ccccc3n2)CC1` [Sotrastaurin], the figure is 0.997; as for `CC(C(=O)O)c1ccc(C(=O)c2cccs2)cc1` (stereo unspecified) [Suprofen], 1.04; as for `O=C(c1ccc(OCCCc2c[nH]cn2)cc1)C1CC1` [Ciproxifan], 0.917.
Turning to `CCOc1ccc(NC(C)=O)cc1` [Phenacetin], the cell viability was 1.03.
For `CN1CCC[C@@H]1CCO[C@](C)(c1ccccc1)c1ccc(Cl)cc1` [Clemastine fumarate], the cell viability was 1.19.
With `CC[N+](CC)(CC)CCOc1cccc(OCC[N+](CC)(CC)CC)c1OCC[N+](CC)(CC)CC` [Gallamine triethiodide] the figure was 1.05; with `CC(C)(C)NCC(O)c1cc(O)cc(O)c1` (stereo unspecified) [Terbutaline Sulfate], 0.827; with `COc1cc2ncnc(Nc3ccccc3)c2cc1OC`, 0.886.
In the case of `CN(C)CCCCC(=O)Nc1ccc(NC(=S)NC(=O)c2ccc(C(C)(C)C)cc2)cc1` [Tenovin-6], the cell viability is 0.905.
With `O=c1cc(-c2ccc(O)cc2)oc2cc(O)c(O)c(O)c12` [Scutellarein] the figure was 0.904; with `C=C(c1ccc(C(=O)O)cc1)c1cc2c(cc1C)C(C)(C)CCC2(C)C` [Bexarotene], 0.906; with `CCc1oc2ccccc2c1C(=O)c1cc(Br)c(O)c(Br)c1` [Benzbromarone], 1.1.
As for `Cn1cc(-c2ccc(S(=O)(=O)n3ccc(/C=C/C(=O)Nc4ccccc4N)c3)cc2)cn1` [4SC-202 tosylate], the figure is 0.942; as for `O=c1[nH]nc(Sc2ncc([N+](=O)[O-])s2)n1-c1ccc2c(c1)OCCO2`, 0.97; as for `NCc1ccc(S(N)(=O)=O)cc1` [Mafenide hydrochloride], 1.03.
Take `Cc1c[nH]c(/C=C2\C(=O)Nc3ccccc32)c1CCC(=O)O`: the cell viability amounted to 0.947.
As for `CCOC(=O)c1[nH]c2cc(Cl)ccc2c1C(C(=O)NC(C)(C)C)N(C=O)Cc1ccc(Cl)cc1` (stereo unspecified), the figure is 1.07; as for `O=C1Nc2ccccc2/C1=C/c1ccc(F)cc1`, 1.04.
`CC(COc1ccccc1)NC(C)C(O)c1ccc(O)cc1` (stereo unspecified) [Isoxsuprine hydrochloride] registered a cell viability of 0.996.
